Screen size: about 50,000 compounds; about 800 (1.6%) showed an effect of 50% or more. The list shows a part of the results.

Experimental findings from PubChem BioAssay AID1240 (Sanford-Burnham Center for Chemical Genomics, 2008) are described below.

The assay deals with Bcl-2-like protein 10 (Homo sapiens) (UniProt Q9HD36). The assay is described as follows: TR3 peptide-Bcl-B binding displacers, biochemical primary FP assay, phenotype converters (AID 1240).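 Note: 0% = Bcl-B with tracer peptide and DMSO and 100% = tracer peptide lacking Bcl-B.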 To be noted: GST-Bcl-B / FITC-TR3 peptide fluorescence polarization; stronger effect = higher value; compound at 3.75 mg/L.
UniProt Q9HD36, sequence (Q9HD36 whole entry, looked up): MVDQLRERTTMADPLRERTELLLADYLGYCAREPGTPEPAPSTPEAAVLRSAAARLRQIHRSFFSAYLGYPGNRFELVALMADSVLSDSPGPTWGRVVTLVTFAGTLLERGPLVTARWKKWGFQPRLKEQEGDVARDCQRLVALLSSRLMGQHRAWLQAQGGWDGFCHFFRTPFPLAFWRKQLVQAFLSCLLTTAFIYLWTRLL
`COc1ccc(C(=O)N2CCN(C3C4CC5CC(C4)CC3C5)CC2)cc1OC` (stereo not drawn): the displacement was -6.5%.

In the case of `CCCCOc1ccccc1C1Nc2ccccc2NC2=C1C(=O)CC(c1ccccc1)C2` (stereo not drawn), the displacement stood at 1.1%.

Regarding `O=C1C(Cl)=C(Nc2ccc(F)cc2)C(=O)N1c1ccc(Br)cc1`, the displacement is -2.5%.

As to `Cc1ccc(C(=O)c2sc3nc(C)cc(C)c3c2N)c(C)c1`, the displacement was determined as 2.3%.

Turning to `NC(=O)c1cc(NC(=O)COc2ccc(F)cc2)ccc1Cl`, the displacement stood at 1.1%.

For `CCN(CC)C(=O)CN(c1ccc(Cl)cc1)S(C)(=O)=O`, the displacement was determined as 1.2%.

On to `O=C1C2C3C=CC(C4CC34)C2C(=O)N1N=Cc1ccccc1Cl` (stereo not drawn), for which the displacement came out at 9.2%.

Take `CN(C)S(=O)(=O)c1ccc(C(=O)Nc2nc3ccc(Br)cc3s2)cc1`: the displacement was -9.6%.

In the case of `Cc1ccc(O)c(NC(=O)c2ccc(Cl)cc2)c1`, the displacement came to 7.7%.

`O=C1CSC(=O)N1c1ccc(O)cc1`: the displacement came out at 12.8%.

With `Cc1ccc(C(=O)Nc2ccc(C(C)C)cc2)cc1C`, the displacement was 12.7%.

As for `COc1ccc(CNC(=O)/C=C/c2cccc([N+](=O)[O-])c2)cc1`, the displacement was 3.7%.

Regarding `O=C(Cc1cccc2c(S(=O)O)cccc12)NC(c1ccccc1)c1ccccc1`, the displacement was found to be 10%.

As for `CC1CCc2c(sc3nc(-c4ccccc4)oc(=O)c23)C1` (stereo not drawn), the displacement stood at 5.1%.

Turning to `Cc1ccc(N=Cc2c(O)n(-c3ccccc3Cl)c(=O)[nH]c2=O)cc1`, the displacement was 5%.

With `CSc1ccc(S(=O)(=O)N(CC(=O)NC2CCCCC2)c2ccc(C)cc2)cc1`, the displacement was 7.9%.

With `Cc1ccc(NC(=S)NC(=O)c2ccco2)cc1`, the displacement was -0.3%.

For the molecule `Cc1onc(-c2ccccc2Cl)c1C(=O)N1CCCCCC1`, the displacement was found to be 3%.

Turning to `O=C(c1ccc([N+](=O)[O-])cc1)N1CCN(c2cccc(Cl)c2)CC1`, the displacement is -1.3%.

Turning to `COc1ccc(C2C(=O)c3ccccc3C2=Nc2ccc(Br)cc2)cc1` (stereo not drawn), the displacement was 14.2%.

As for `O=C(O)CSc1ncnc2c1oc1ccccc12`, the displacement came out at 0.4%.

On to `CN(C)CCNC(=O)C12CC3CC(c4ccccc4)(C1)CC(c1ccccc1)(C3)C2`, for which the displacement worked out at 15.6%.

`COc1ccccc1N(C(=O)Nc1ccc(Cl)cc1)C(C)C1CC1` (stereo not drawn): the displacement was 8.3%.

Consider `CC(c1ccccc1)N1C(=O)C(=Cc2c(NCC3CCCO3)nc3ccccn3c2=O)SC1=S` (stereo not drawn), for which the displacement was -14.7%.

On to `Oc1ccc(NC(=S)N=Nc2c(O)[nH]c3ccccc23)cc1`, for which the displacement amounted to 8.7%.

Take `COc1ccc(C2C(C(=O)OC(C)C)=C(C)N=c3s/c(=C\c4ccc(C)o4)c(=O)n32)cc1` (stereo not drawn): the displacement came to 12.9%.

As for `Cc1ccsc1C=NN1CCN(Cc2ccccc2Cl)CC1`, the displacement was -8%.

Turning to `CCOc1cccc(C(=O)Nc2ccc(-c3nc4cc(Cl)ccc4o3)cc2)c1`, the displacement is 81.3%.

Consider `O=C(COc1ccc(Cl)cc1)Nc1ccccc1`, for which the displacement was 13.7%.

Turning to `Cc1cccc(N(CC(=O)NCCSc2ccccn2)S(=O)(=O)c2ccccc2)c1`, the displacement worked out at 3.8%.

With `COc1ccc2c(c1OC)C(=O)N(c1ccccc1O)C2=O`, the displacement was found to be 1.2%.

Take `COc1ccc(/C=C(\C#N)c2ccc([N+](=O)[O-])cc2)c(OC)c1`: the displacement came to 110%.

Consider `CCOC(=O)c1c(-c2ccccc2)nn(-c2ccccc2)c1C`, for which the displacement was 16.9%.

As to `O=C(Nc1ccc2ccccc2c1)C1CC(=O)N(c2cccc([N+](=O)[O-])c2)C1` (stereo not drawn), the displacement worked out at 9.5%.

As for `c1ccc2c(N3CCOCC3)nc(-c3ccncc3)nc2c1`, the displacement was 7.4%.

As for `COc1ccc(CNS(=O)(=O)c2ccc([N+](=O)[O-])cc2)cc1`, the displacement was -6.4%.

In the case of `O=C(Nc1cccc(NC(=O)c2ccc(Cl)cc2Cl)c1)c1ccc(-c2ccc([N+](=O)[O-])cc2)o1`, the displacement is 106%.

Take `Cc1ccccc1OCC(=O)NNC(=O)c1ccccc1C`: the displacement was -10.7%.

Take `O=C(Nc1ccc(OC(F)(F)F)cc1)c1ccc2c(c1)OCCO2`: the displacement is 0.8%.

Turning to `CCN(CC)CCc1c(C)[nH]c(C(=O)OCc2ccccc2)c1C`, the displacement is -0.3%.

Regarding `Cc1ccc([N+](=O)[O-])cc1NC(=O)c1ccccc1C(=O)O`, the displacement turned out to be 2.1%.

For the molecule `O=C(O)c1ccc(C(=O)Nc2ccccc2Oc2ccccc2)c(C(=O)O)c1`, the displacement came to 9.6%.

`O=C(/C=C/c1ccc(F)cc1)NC(=S)Nc1cccc([N+](=O)[O-])c1`: the displacement is -2.5%.

Turning to `Cc1ccc(C(=O)Nc2ccc(C(=O)O)cc2)cc1S(=O)(=O)N1CCCCC1`, the displacement was found to be 0.1%.

`COc1ccc(/C=C/c2ccc3ccccc3n2)cc1`: the displacement was -10.7%.

For `O=c1oc2ccccc2c(O)c1/C=C1\C=Nc2ccccc21`, the displacement was determined as 2.2%.

Take `CCOC(=O)C1C(=O)C=C(c2ccc([N+](=O)[O-])cc2)CC1c1ccccc1` (stereo not drawn): the displacement turned out to be 4.1%.

With `CC(=O)c1ccc(N2C(=O)CC(S/C(N)=N/N=C(\C)c3cccs3)C2=O)cc1` (stereo not drawn), the displacement was 11.6%.

Turning to `COCCNC(=O)COc1cccc2ccccc12`, the displacement came to 0.4%.

Regarding `Cc1ccc(N2NC(=O)/C(=C/c3cccs3)C2=O)cc1Cl`, the displacement turned out to be 13.1%.

As to `CCOC(=O)COc1cc(Br)c(/C=c2\sc3nc4ccccc4n3c2=O)cc1OC`, the displacement came to 11.1%.

`COc1ccc(N=Cc2c(O)n(-c3ccccc3OC)c(=O)[nH]c2=O)cc1`: the displacement was determined as 9.4%.

As to `COc1ccc(OC)c(C2NC(=S)NC(C)=C2C(=O)Nc2ccc(Cl)cc2)c1` (stereo not drawn), the displacement was -9.2%.

In the case of `COc1ccc(NCN2C(=O)S/C(=C/c3ccc(SC)cc3)C2=O)cc1`, the displacement was -3.5%.

Regarding `CCN(CC)C(=O)c1c(-c2ccccc2)oc2ccc(O)cc12`, the displacement came out at 4.7%.

As for `O=[N+]([O-])c1ccc2c(c1)ONC(c1ccc(Cl)cc1)=N2`, the displacement worked out at 11.1%.

For the molecule `Cc1ccc(C(=O)O/N=C(\N)c2cccc([N+](=O)[O-])c2)cc1`, the displacement is -17.2%.

Consider `Cc1ccc(/C=C2\C=C(c3ccc(Cl)cc3)OC2=O)cc1[N+](=O)[O-]`, for which the displacement is 13.1%.

With `COc1ccc(NC(=O)NCCOc2cccc3ccccc23)cc1OC`, the displacement was -11.5%.

For `Cc1cc([N+](=O)[O-])ccc1NS(=O)(=O)c1cc(Cl)ccc1Cl`, the displacement is -3%.

For the molecule `NC1=NC(=O)/C(=C/c2cccc(OS(=O)(=O)c3cccc([N+](=O)[O-])c3)c2)S1`, the displacement is -8%.

On to `O=C(c1ccccc1)N1CCN(C(=O)c2ccccc2)C1`, for which the displacement was -1.7%.

On to `Oc1[nH]c2ccccc2c1C1=NCCC1`, for which the displacement was 2%.

In the case of `c1coc(-c2nc3sc(-c4ccco4)nc3s2)c1`, the displacement came to 44.5%.

`Cc1cc(N(CCO)CCO)nc(-n2nc(C)cc2C)n1`: the displacement is 0.4%.

For the molecule `CCCc1ncc(C(O)c2ccccc2OC)n1C` (stereo not drawn), the displacement is -3.3%.

On to `CCCCCSc1nnc2nc(C)cc(C)n12`, for which the displacement is -5.3%.

For the molecule `Nc1nc2nc(C(F)(F)C(F)(F)C(F)(F)C(F)(F)F)cc(=O)n2[nH]1`, the displacement is -1.7%.

Take `O=C(NCCNC(=O)c1c(O)c2ccccc2oc1=O)c1ccccc1`: the displacement is -5.5%.

Turning to `NS(=O)(=O)c1ccc(CCNC2CC(=O)N(CCc3ccccc3)C2=O)cc1` (stereo not drawn), the displacement is -6.8%.

Consider `Nc1nc(OCC(F)(F)C(F)F)cc(-c2ccccc2)n1`, for which the displacement was -6%.

Take `COc1ccc(S(=O)(=O)N2CCN(C(=O)c3ccc([N+](=O)[O-])cc3)CC2)cc1`: the displacement was found to be 7.3%.

With `CNC(=O)c1ccc(CN2CCC(Cc3ccccc3)CC2)cc1`, the displacement was -13.5%.

Consider `COc1cc(OC)c(C2Nc3cccc4cccc(c34)N2)c(OC)c1`, for which the displacement came out at 30.3%.

Consider `COC(=O)c1ccccc1NC(=O)CN(c1cc(C)cc(C)c1)S(=O)(=O)c1ccccc1`, for which the displacement amounted to 5%.

`CCCCSc1nnc(-c2ccc(Br)cc2)o1`: the displacement was -11.4%.

`COc1ccc(-c2nc3cc(NC(=O)c4ccc5c(c4)OCCO5)ccc3o2)cc1Cl`: the displacement is -7%.

`COC(=O)c1c(NC(=O)CCc2ccccc2)sc2c1CCC(C)C2` (stereo not drawn): the displacement was -5.7%.

As to `N#CSCCCOc1ccc(Br)cc1`, the displacement is -4.7%.

`CCc1ccccc1NC(=O)CN(c1ccc(C)cc1)S(=O)(=O)c1ccc(SC)cc1`: the displacement was found to be 11.6%.

Take `CCOc1ccc(N(CC(=O)N[C@@H]2C[C@H]3CC[C@@H]2C3)S(=O)(=O)c2ccc(SC)cc2)cc1`: the displacement came out at 5.2%.

For `CCc1ccc(N2CC(C(=O)Nc3c(CC)cccc3CC)CC2=O)cc1` (stereo not drawn), the displacement amounted to 3%.

Regarding `Cc1cc(OCC(=O)Nc2ccccc2Cl)cc(C)c1Cl`, the displacement is -0.9%.

For `Cc1ccc(S(=O)(=O)Nc2ccccc2C(N)=O)cc1`, the displacement was found to be 2.7%.

In the case of `NC1=NC(=O)/C(=C/c2ccc(OS(=O)(=O)c3cccc([N+](=O)[O-])c3)cc2)S1`, the displacement is 10.1%.

For `Cc1ccc(/C=N/NC(=O)C(C)Nc2cccc3ccccc23)o1` (stereo not drawn), the displacement came out at 43.3%.

Take `Cc1onc(-c2ccccc2)c1C(=O)Nc1ccccc1F`: the displacement worked out at 5.3%.

`COC(=O)CSC1=C(C#N)C(c2ccc(Cl)cc2)C2=C(CC(C)(C)CC2=O)N1` (stereo not drawn): the displacement was -7.7%.

With `COc1ccc(C(=O)Nc2cc(Cl)ccc2Cl)cc1NC(=O)C(C)Oc1ccccc1` (stereo not drawn), the displacement was found to be 0.6%.

Regarding `COc1ccc(C2NC(=O)NC(C)=C2C(=O)OCCSC)cc1` (stereo not drawn), the displacement is -4.2%.

For `COc1cc(C=C2C(=O)NC(=S)NC2=O)cc(Br)c1O`, the displacement came out at 11.8%.

With `Cc1cccc(C)c1N(CC(=O)NN=C1CCCCCCC1)S(C)(=O)=O`, the displacement was -2.4%.

Consider `COc1cc(C(=O)NC(NC(=S)Nc2ccc(F)cc2)C(Cl)(Cl)Cl)cc(OC)c1OC` (stereo not drawn), for which the displacement is -9.6%.

For `O=C1/C(=C\c2cccc(Br)c2)SC(=S)N1c1cccc(C(F)(F)F)c1`, the displacement amounted to 18.2%.

As for `Cc1cccc(S(=O)(=O)N2CCSC2c2cccc(Cl)c2)c1` (stereo not drawn), the displacement is -0.3%.

Consider `COc1ccc(/C=N/n2cnnc2)cc1COc1ccc(NC(C)=O)cc1`, for which the displacement was 21%.

On to `COC(=O)c1ccc(OCc2ccc(COc3ccc(C(=O)OC)cc3)cc2)cc1`, for which the displacement is 3.2%.

In the case of `Cc1ccc(NC(=O)c2cccc3c(Br)cccc23)c([N+](=O)[O-])c1`, the displacement is -1.9%.

`CCOC(=O)C1=C(C)N=c2s/c(=C\c3ccc(OC)cc3)c(=O)n2C1c1ccc(Cl)cc1` (stereo not drawn): the displacement is 18.8%.

For the molecule `O=C1/C(=C/c2ccc(O)c([N+](=O)[O-])c2)SC(=S)N1Cc1ccccc1`, the displacement was determined as 12.2%.

`O=C(Nc1cccc(Cl)c1Cl)c1cc2ccccc2o1`: the displacement was found to be 5.7%.

For `Cc1ccc(OCCNC(=O)c2ccc(C)cc2)cc1`, the displacement was 6.9%.

As to `O=C(NCc1cccs1)NC12CC3CC(CC(C3)C1)C2`, the displacement was -4.8%.

On to `COc1ccccc1NC(=O)C1=C(C)NC(=S)NC1c1cccc(OC)c1OC` (stereo not drawn), for which the displacement is -14%.

With `Cc1ccc(Cl)cc1NC(=O)c1ccc(CN(c2ccccc2)S(C)(=O)=O)cc1`, the displacement was 10.7%.

Consider `CC(C)OC(=O)c1cc2n(n1)C(C(F)(F)F)CC(c1cccs1)N2` (stereo not drawn), for which the displacement was 5.1%.

Consider `CN1CCN(C(=O)/C(=C\c2cccs2)NC(=O)c2cccs2)CC1`, for which the displacement came out at 0.6%.

As to `Cc1c(C(=O)O)cccc1-n1c(=O)c2cc3c(=O)n(-c4cccc(C(=O)O)c4C)c(=O)c3cc2c1=O`, the displacement stood at 14%.
